From publication PMC6239180 (RNA, 2018)

Target: T1, His-tagged hClp1 (human, UniProt Q92989 1-425)
T1 sequence: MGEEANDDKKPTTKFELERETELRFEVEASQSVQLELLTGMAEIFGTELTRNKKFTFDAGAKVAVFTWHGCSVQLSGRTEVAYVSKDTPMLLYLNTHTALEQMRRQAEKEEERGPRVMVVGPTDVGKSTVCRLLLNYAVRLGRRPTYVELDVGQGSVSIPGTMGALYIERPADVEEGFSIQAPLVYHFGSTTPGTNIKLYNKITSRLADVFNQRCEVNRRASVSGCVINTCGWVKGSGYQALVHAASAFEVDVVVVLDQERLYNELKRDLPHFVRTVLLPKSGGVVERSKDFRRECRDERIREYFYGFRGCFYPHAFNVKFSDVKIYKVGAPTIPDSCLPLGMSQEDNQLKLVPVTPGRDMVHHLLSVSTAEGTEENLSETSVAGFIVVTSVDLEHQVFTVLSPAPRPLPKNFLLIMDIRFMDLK
Experiment: SEC + other: glycerol gradient centrifugation

stoichiometry N: 1 hPcf11 per hClp1
B1: hPcf11 (full-length, recombinant) (natural protein)
chain: not shown
